US20260000764A1 (CITY OF HOPE, published 2026)

How the values were obtained:
[1] = target: T1, Biotinylated recombinant human IL-13Rα1 ectodomain with C-terminal biotin acceptor peptide and hexahistidine … (human, UniProt P78552 22-343, biotin on the biotin acceptor peptide (coexpressed with BirA ligase)); experiment: SPR, IL-13Rα1 immobilized on the chip, IL-13 flowed; panel titled IL-13/IL-13Rα1
T1 construct: extracellular domain; also called recombinant IL13Rα1; biotinylated IL13Rα1
T1 sequence: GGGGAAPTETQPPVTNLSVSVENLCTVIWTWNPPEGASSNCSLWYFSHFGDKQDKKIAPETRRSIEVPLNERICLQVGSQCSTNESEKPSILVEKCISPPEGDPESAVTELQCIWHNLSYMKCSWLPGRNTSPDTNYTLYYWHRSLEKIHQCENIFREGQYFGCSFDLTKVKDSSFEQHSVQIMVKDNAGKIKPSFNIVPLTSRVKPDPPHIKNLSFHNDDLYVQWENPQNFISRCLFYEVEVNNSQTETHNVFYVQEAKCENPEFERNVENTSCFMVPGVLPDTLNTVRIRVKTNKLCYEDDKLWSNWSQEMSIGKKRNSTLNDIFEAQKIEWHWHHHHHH
Source text: (§1) FIG. 2A-2F: IL-13Rα1 and IL-13Rα2 binding affinities of the IL-13 variant. (A-C) Surface plasmon resonance measurements of IL-13, IL-13 D7 and IL-13 C4 for IL-13Rα1. IL-13Rα1 was immobilized on the surface of the chip and the indicated doses of IL-13 or the two IL-13 mutants were flowed. (D-F) Surface plasmon resonance measurements of IL-13,IL-13 D7 and IL-13 C4 for IL-13Rα2. IL-13Rα2 was immobilized on the surface of the chip and the indicated doses of IL-13 or the two IL-13 mutants were flowed.
(§2) SPR experiments were conducted on a Biacore T100 instrument using a Biacore SA sensor chip (GE Healthcare). Biotinylated IL-13Rα1/IL-13Rα2 was captured at a low density (50-100 response units (RU)) and kinetics measurements were conducted at 30 μL/min. An unrelated biotinylated protein was immobilized as a reference surface for the SA sensor chip with matching RU to the experimental surface. All measurements were made using 3-fold serial dilutions of IL-13 agonists in the running buffer (1×HBS-P, 0.1% BSA). The IL-13Rα1/IL-13Rα2 bound to the chip surface was regenerated with 7 mM glycine (pH 3.0) and 250 mM NaCl. Kinetic parameters were determined using 120 s to 190 s of IL-13 agonist association time and 20 s to 1200 s dissociation time. All data fitting was performed using the Biacore T100 evaluation software version 2.0 with a 1:1 Langmuir binding model.

[2] = target: T2, Biotinylated recombinant human IL-13Rα2 ectodomain with C-terminal biotin acceptor peptide and hexahistidine … (human, UniProt Q14627 27-343, biotin on the biotin acceptor peptide (coexpressed with BirA ligase)); experiment: SPR, IL-13Rα2 immobilized on the chip, IL-13 flowed; panel titled IL-13/IL-13Rα2
T2 construct: extracellular domain; also called recombinant IL13Rα2; biotinylated IL13Rα2
T2 sequence: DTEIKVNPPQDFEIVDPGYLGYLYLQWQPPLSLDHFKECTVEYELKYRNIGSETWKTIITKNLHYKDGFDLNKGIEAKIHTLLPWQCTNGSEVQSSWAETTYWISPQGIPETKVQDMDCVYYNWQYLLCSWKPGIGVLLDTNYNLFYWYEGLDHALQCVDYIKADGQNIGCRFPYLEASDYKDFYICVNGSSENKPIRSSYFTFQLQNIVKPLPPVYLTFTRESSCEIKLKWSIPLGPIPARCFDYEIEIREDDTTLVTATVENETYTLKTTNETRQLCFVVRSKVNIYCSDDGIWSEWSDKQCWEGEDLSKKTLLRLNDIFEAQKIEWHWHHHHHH
Source text: as §1, §2

[3] = target: T1, Biotinylated recombinant human IL-13Rα1 …; experiment: SPR (Biacore T100), biotinylated IL-13Rα1 captured on SA chip, IL-13 flowed, 1:1 Langmuir fit
Protocol: as §2

[4] = target: T2, Biotinylated recombinant human IL-13Rα2 …; experiment: SPR (Biacore T100), biotinylated IL-13Rα2 captured on SA chip, IL-13 flowed, 1:1 Langmuir fit
Protocol: as §2

[5] = target: T1, Biotinylated recombinant human IL-13Rα1 …; experiment: SPR; ratio column of the drawn table, IL13Rα1
Source text: as §1, §2

[6] = target: T2, Biotinylated recombinant human IL-13Rα2 …; experiment: SPR; ratio column of the drawn table, IL13Rα2
Source text: as §1, §2

Kd [1]: 4.38 nM | koff [1]: 0.022 s⁻¹ | kon [1]: 5.21e+06 M⁻¹ s⁻¹ | koff [2]: 8.4e-05 s⁻¹ | kon [2]: 5e+07 M⁻¹ s⁻¹ | Kd [3]: 4.38 nM | koff [3]: 0.022 s⁻¹ | kon [3]: 5.21e+06 M⁻¹ s⁻¹ | koff [4]: 8.4e-05 s⁻¹ | kon [4]: 5e+07 M⁻¹ s⁻¹ | KDwt/KD mut [5]: 1 | KDwt/KD mut [6]: 1
B1: Human IL-13 wild type, soluble recombinant protein with C-terminal hexahistidine tag (ligand)
chain: not shown
notes: Soluble cytokine used in SPR and in the signalling assays; also called IL13 WT; WT
